Results: PubChem BioAssay AID1508624 (National Center for Advancing Translational Sciences (NCATS), 2021)
In all, about 48,000 compounds went through this assay and about 120 (0.25%) were called active. Another 4% or so got no clear call; they are omitted. The call rests on the fitted dose curve; in most records, active means well fitted activation curve with a large enough effect; inconclusive means small, poorly fitted or top-dose-only effect, or another doubt; inactive means no such curve, though single readings can be large or run the other way. This is one part of the list.

Test: Primary qHTS for Identification of Small Molecule Activators of Huntingtin-Antisense Promoter Activity; further: nearly all actives have a fitted effect of over 55% in size
Settings: HEK293 HTT-AS promoter firefly luciferase reporter, 24 h; series mostly up to 57.5 µM; activity change, positive = activation: at the top concentration
Summary of the method: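 Firefly luciferase signal from promoter-reporter HEK293 cells was scaled between vehicle (0%) and zero RLU (-100%). Compounds were tested at final concentrations of up to 57.5 uM over 24 h at 37 degrees C. PTC124 at 50 uM final served as control inhibitor.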
Potency means the concentration at half of the fitted maximal effect.

Row | Compound | activity change, positive = activation | Potency
1 | CCOc1ccc(NC(=O)Cn2nnc(C(=O)NCc3cccs3)c2N)cc1 | inactive: -8.95% | 
2 | COc1ccc(/C=C\c2onc(C)c2S(=O)(=O)N2CCC(C(=O)Nc3cccc(C)c3C)CC2)cc1 | inactive: -4.69% | 
3 | CC(=O)c1ccc(Nc2nc3ccccc3nc2-n2nc(C)cc2C)cc1 | inactive: 20.2% | 
4 | CC(=O)c1cccc(NC(=O)Cn2c(=O)oc3cc(S(=O)(=O)NC4CCCC4)ccc32)c1 | inactive: -19.4% | 
5 | CC(=O)N1CCN(c2nc3c(C)ccc(Cl)c3s2)CC1 | inactive: 15.1% | 
6 | COc1cccc(NC(=O)CSc2nccn2Cc2ccc3c(c2)OCO3)c1 | inactive: 5.86% | 
7 | Cc1nc(-n2nc(C)c(Cc3ccc(Cl)cc3)c2C)sc1C(=O)N1CCCCC1C (stereo not given) | inactive: -15% | 
8 | Cc1ccc(C)c(Cn2c3ccccc3c3cnn(CC(=O)NCC(C)c4ccccc4)c(=O)c32)c1 (stereo not given) | inactive: -6.2% | 
9 | O=C(CSCc1ccccc1Cl)NCc1ccc(Cl)c(Cl)c1 | inactive: 2.7% | 
10 | CCCCOc1ccccc1NC(=O)Cn1c(-c2cncs2)nc2ccccc21 | inactive: -25.5% | 
11 | O=C(NC1CC(=O)N(c2ccccc2)C1)c1cc2ccccc2o1 (stereo not given) | inactive: -12.7% | 
12 | COc1ccc(OC)c(-n2cnc3cc(C(=O)NC4CCCC4)ccc32)c1 | inactive: -11.5% | 
13 | O=C(Nc1nnc(S(=O)(=O)N2CCCC2)s1)c1ccc(F)cc1 | inactive: -3.01% | 
14 | Cc1oc(-c2ccccc2)nc1CNS(=O)(=O)c1ccc(Cl)cc1 | inactive: -17.2% | 
15 | O=C(Nc1ccc(Cl)cc1)Nc1ccc(Cl)c(Cl)c1 | inactive: -92.9% | 
16 | CC=C(C)C(=O)O[C@H]1C(C)=C[C@]23C(=O)[C@@H](C=C(CO)[C@@H](O)[C@]12O)[C@H]1[C@@H](C[C@H]3C)C1(C)C | inactive: 3.88% | 
17 | CN1CCN(Cc2c(O)ccc3cc(-c4ccccc4)c(=O)oc23)CC1 | inactive: -3.94% | 
18 | CCOc1ccc(-c2cc(C(=O)NCc3ccc(OC)cc3)c3c(-c4ccc(F)cc4)[nH]nc3n2)cc1 | inactive: -23.6% | 
19 | Cc1cccc(-c2nc(N3CCN(c4ccc(F)cc4)CC3)c3ccccc3n2)c1 | inactive: -7.68% | 
20 | COc1ccc(Nc2nc3c(S(=O)(=O)c4ccccc4)nnn3c3ccc(Cl)cc23)cc1OC | inactive: 0% | 
21 | CCOC(=O)c1cccc(NC(=O)c2cc3c(=O)n(Cc4cccnc4)ccc3nc2C)c1 | inactive: -11.8% | 
22 | Cc1ccc(-n2c(=O)c3c(cnn3C)n(CC(=O)Nc3cc(C)ccc3C)c2=O)cc1 | inactive: -9.61% | 
23 | O=C(CCSCc1cnn(-c2ccccc2)c1-n1cccc1)NCc1ccc(Cl)cc1 | inactive: -31.7% | 
24 | O=C1c2c(O)cccc2Cc2cccc(O)c21 | inactive: 1.36% | 

Row | Compound | activity change, positive = activation | Potency
25 | Cc1ccc(NC(=O)Cn2cc(C(=O)c3cccs3)c3ccccc32)cc1C | inactive: -21.7% | 
26 | Cc1ccc(C(=O)c2cn(Cc3cccc(F)c3)c3nc(C)ccc3c2=O)cc1 | inactive: -19.9% | 
27 | COc1ccc(C(=O)NCc2ccc3c(c2)CCN3C(=O)c2cccc(C)c2)cc1OC | inactive: -4.42% | 
28 | O=C(CCn1cccn1)Nc1cccc(C(F)(F)F)c1 | inactive: -3.4% | 
29 | Cc1oc2ncnc(N3CCOCC3)c2c1C(=O)NCc1ccccc1 | inactive: -4.29% | 
30 | O=C(O)CCCC[P+](c1ccccc1)(c1ccccc1)c1ccccc1 | inactive: -4.05% | 
31 | COc1ccc(CCNC(=O)CSc2nc3ccccc3nc2Cc2ccc(Cl)cc2)cc1OC | inactive: -16.6% | 
32 | Cc1nc2sccn2c(=O)c1S(=O)(=O)N1CCN(c2ccc(F)cc2)CC1 | inactive: -15.3% | 
33 | Cc1cccc(NS(=O)(=O)c2ccc(Cl)c(C(=O)Nc3ccccc3C)c2)c1 | inactive: -31.3% | 
34 | CC(C)Cn1c(-c2ccc(S(=O)(=O)N3CCCC3)cc2)csc1=Nc1ccccc1 | inactive: -19% | 
35 | COc1nccc(-c2c(-c3ccc(F)cc3)ncn2C2CCC(O)CC2)n1 (stereo not given) | inactive: -9.31% | 
36 | COc1ccc(S(=O)(=O)NCCS(=O)(=O)N2CCN(c3ccccc3F)CC2)cc1 | inactive: -23.3% | 
37 | c1csc(-c2nc3ccccn3c2Nc2ccc3c(c2)OCCO3)c1 | inactive: 13.4% | 
38 | COc1ccccc1CNC(=O)c1cccc(NC(=O)N2CCSc3ncccc32)c1 | inactive: -6.77% | 
39 | CCCCOC(=O)c1ccc(NC(=O)CSc2nc3c(c(=O)[nH]2)CCC3)cc1 | inactive: -21.4% | 
40 | CC(=O)c1ccc(N2CCN(c3ncnc4onc(-c5ccc(Cl)cc5)c34)CC2)cc1 | inactive: -36.7% | 
41 | COc1ccc(CCNC(=O)c2ccc(Cn3c(=O)c4ccccc4n(Cc4ccccc4Cl)c3=O)cc2)cc1OC | inactive: -13.4% | 
42 | COC(=O)c1c(-c2ccc(Cl)cc2)noc1N1CCN(c2cccc(OC)c2)CC1 | inactive: -55.2% | 
43 | CCOc1cc(-c2ccc(OC(=O)c3ccc(Cl)cc3)c(OC)c2)cc(=O)c2c(C)oc(C)c12 | inactive: -7.38% | 
44 | Cc1nnc(N2C(=O)c3oc4ccccc4c(=O)c3C2c2ccc(F)cc2)s1 (stereo not given) | inactive: -0.697% [at 11.5 µM, percent change from vehicle, -100% = no light] | 
45 | Cc1c(C(=O)NCc2ccc(F)cc2)sc2nc(-c3ccccc3)cn12 | inactive: 8.23% | 
46 | Oc1c(C(c2ccc(Cl)cc2)N2CCCC2)sc2nc(-c3ccco3)nn12 (stereo not given) | inactive: 9.58% | 
47 | CCOc1ccccc1C(=O)NCC(c1ccc(N(C)C)cc1)N1CCc2ccccc21 (stereo not given) | inactive: -30.3% | 
48 | CCCCCn1c(=O)[nH]c2cc(C(=O)N3CCN(c4ccccc4F)CC3)ccc2c1=O | inactive: -20.8% | 

Row | Compound | activity change, positive = activation | Potency
49 | CCOC(=O)c1cccc(Nc2nc(C(=O)OCC)nc3ccccc23)c1 | inactive: -24.8% | 
50 | CCOC(=O)c1[nH]c2ccccc2c1NC(=O)c1ccc(OCC)cc1 | inactive: -1.26% | 
51 | Cc1ccc(-n2ncc3c(NCCCn4ccnc4)ncnc32)cc1 | inactive: -12.9% | 
52 | COCCCCC(=NOCCN)c1ccc(C(F)(F)F)cc1 | inactive: -34.4% | 
53 | Cc1ccc(NC(=O)c2cc(-c3cccs3)on2)cc1C |  | active: 8.91 µM
54 | CCN1CCN(CCCNC(=O)c2cnn(-c3ccc(C)cc3)c2C2CCN(C(=O)OC(C)(C)C)CC2)CC1 | inactive: 1.69% | 
55 | Cc1oc2ncn(CC(C)C)c(=O)c2c1C(=O)NCCCN1CCCCC1C (stereo not given) | inactive: -3.51% | 
56 | COc1cccc(Cn2c(=O)n(CC3CCC(C(=O)N4CCOCC4)CC3)c(=O)c3sccc32)c1 (stereo not given) | inactive: -16.9% | 
57 | Cc1cc(C)c2c(n1)SCC(=O)N2CC(=O)Nc1cccc(C)c1C | inactive: -16.6% | 
58 | CCN1CCN(C(=O)c2ccc3c(c2)N(Cc2ccc(Cl)cc2)C(=O)c2ccccc2S3=O)CC1 (stereo not given) | inactive: -15.5% | 
59 | CCOc1ccc(NC(=O)c2oc3ccccc3c2NC(=O)Cc2cccs2)cc1 | inactive: 10.3% | 
60 | CCc1ccc(Cn2c(CNS(=O)(=O)c3ccc4c(c3)CCCC4)nc3cccnc32)cc1 | inactive: -23.2% | 
61 | CCc1ccc2c(c1)c(=O)c(C(=O)c1ccccc1)cn2CC(=O)Nc1ccc(C)c(Cl)c1 | inactive: -14.5% | 
62 | CCc1ccc2c(c1)c(=O)c(C(=O)c1ccc(C)cc1)cn2CC(=O)Nc1ccccc1C | inactive: -11.7% | 
63 | Cc1cccc(C)c1OCC(=O)Nc1c(C(=O)c2ccccc2)oc2ccccc12 | inactive: -13.7% | 
64 | COc1ccc(-c2nnc(SCC(=O)NCCc3ccccc3)nc2-c2ccc(OC)cc2)cc1 | inactive: -1.86% | 
65 | CCc1ccccc1NC(=O)c1ncoc1-c1ccco1 | inactive: -4.74% | 
66 | COc1ccc(-c2c(C)nn3c(-c4ccccc4)cc(-c4ccccc4)nc23)cc1 | inactive: 6.21% | 
67 | Cc1ccc(NC(=O)CSc2nc3nccnc3c(=O)n2CCc2c[nH]c3ccccc23)c(C)c1 | inactive: -18.7% | 
68 | O=C(Cc1ccc(NC(=O)N2CCCCc3ccccc32)cc1)Nc1ccccc1Br | inactive: -35.2% | 
69 | Cc1cccc(NC(=O)CN(C)S(=O)(=O)c2cnc[nH]2)c1C | inactive: -9.55% | 
70 | Cc1ccccc1CN1c2ccccc2-c2nc(SCC(=O)Nc3cc(F)ccc3F)ncc2S1(=O)=O | inactive: -0.501% | 
71 | Cc1ccc(-n2ncc(C(=O)NCCCN3CCN(C)CC3)c2C2CCN(C(=O)OC(C)(C)C)CC2)cc1 | inactive: -3.33% | 
72 | Cc1cc(C)c(NC(=O)CN2C(=O)CCn3nc(-c4cccn4C)cc32)c(C)c1 | inactive: -9.03% | 

Row | Compound | activity change, positive = activation | Potency
73 | CCCCNc1cc(N2CCN(C3CCCCC3)CC2)c2noc3c2c1C(=O)c1ccccc1-3 | inactive: -7.06% | 
74 | CCCCC(=O)N1CCN(c2nc3c(C)c(C)ccc3s2)CC1 | inactive: -11.6% | 
75 | Cc1cc(C)c(NC(=O)CSc2cn(CC(=O)N3CCOCC3)c3ccccc23)c(C)c1 | inactive: -16.9% | 
76 | O=C(Nc1nnc(S(=O)(=O)N2CCOCC2)s1)c1cccc(Br)c1 | inactive: -11.2% | 
77 | Cc1nc2c(C(=O)NCCc3ccccc3)c[nH]n2c(=O)c1Cc1ccccc1F | inactive: -20.9% | 
78 | COc1cc(NS(=O)(=O)c2cc3c(cc2C)n(C)c(=O)c(=O)n3C)cc(OC)c1 | inactive: -20.2% | 
79 | COc1cc(NC(=O)NCCn2nnc3cc(S(=O)(=O)N(C)C)ccc32)cc(OC)c1OC | inactive: 5.26% | 
80 | COc1cc(NC(=O)c2cc3cc4ccc(OC)c(Cl)c4nc3s2)cc(OC)c1 | inactive: -3.4% | 
81 | CCC(Sc1ccc2nnc(CCNS(=O)(=O)c3ccc(OC)cc3)n2n1)C(=O)OC (stereo not given) | inactive: -7.43% | 
82 | Cc1ccccc1C(=O)NC1(C(F)(F)F)C(=O)Nc2c1c(=O)[nH]c(=O)n2CCc1ccccc1 (stereo not given) | inactive: 8.23% | 
83 | COc1ccc(-c2nc3c4ccccc4n(CC(=O)Nc4ccc(C(C)=O)cc4)c(=O)n3n2)cc1 | inactive: 0.837% | 
84 | Cc1nc2ccc(S(=O)(=O)NCC(=O)Nc3ccc(C)c(Cl)c3)cc2s1 | inactive: -5.67% | 
85 | Cc1cc(C)cc(NC(=O)CSc2nc3c(cnn3-c3ccc(F)cc3)c(=O)[nH]2)c1 | inactive: -8.69% | 
86 | Cc1cc(SCC(=O)Nc2ccc(C(F)(F)F)cc2)nc(=O)[nH]1 | inactive: -39.8% | 
87 | CC(C)C[C@@H](N)C(=O)O | inactive: -4.7% [at 25.1 µM, percent change from vehicle, -100% = no light] | 
88 | Cc1ccc(C)c(N2CCN(C(=O)c3cccn4c(=O)c5ccccc5nc34)CC2)c1 | inactive: -16.1% | 
89 | CCCCOC(=O)c1ccc(NC(=O)c2cc(=O)c3ccccc3o2)cc1 | inactive: 0% | 
90 | O=C(O)CCCn1cc(NC(=O)COc2ccccc2F)cn1 | inactive: 4.65% | 
91 | CCc1ccc(C(=O)c2cn(CC(=O)Nc3ccc(OC)cc3)c3cc4c(cc3c2=O)OCCO4)cc1 | inactive: -8.14% | 
92 | O=C(Nc1ccc(OC(F)(F)F)cc1)C(NS(=O)(=O)c1cccc2nsnc12)c1ccccc1 (stereo not given) | inactive: -16.7% | 
93 | Cc1ccc(OCCSc2nc3ccccc3n2CC(=O)NC(C)C)cc1 | inactive: -17.6% | 
94 | O=C(CSc1ncc2c(n1)-c1cc(Cl)ccc1N(Cc1ccccc1)S2(=O)=O)NCc1ccccc1 | inactive: -10.7% | 
95 | O=C1CSC2(C(=O)N(Cc3c(F)cccc3Cl)c3ccccc32)N1c1ccc(F)c(F)c1 (stereo not given) | inactive: -19.6% | 
